Results as given in PubChem BioAssay AID1963576 (National Center for Advancing Translational Sciences (NCATS), 2024).
Hit rate of the full screen: of about 46,000 compounds, about 60 (0.1%) were called active. About 3% were inconclusive and are not listed. The call rests on the fitted dose curve; in most records, active means well fitted inhibition curve with a large enough effect; inconclusive means small, poorly fitted or top-dose-only effect; inactive means no such curve, though single readings can be large or run the other way. The list shows a part of the results.

experiment: Primary qHTS assay for Inhibitors of ovarian cancer metastasis using an organotypic tumor microenvironment (TME) model.; further: nearly all actives have a fitted effect of over 65% in size;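 on activity change, negative = inhibition: plate controls were DMSO wells for no effect and tomatine positive control wells for full effect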; conditions: SKOV3ip1-GFP adhesion/invasion on 3D omental model, fluorescence; series mostly up to 45.8 µM; activity change, negative = inhibition: at the top concentration
How it was run: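 qHTS, 4-pt dose (0.36-46 umol/L); SKOV3ip1-GFP, 1,200 cells/well, no FBS; primary omental fibroblast/mesothelial co-culture 48 h pre-grown; 2 h RT + 16 h 37 C; PBS wash, 4% PFA; GFP count 488/509 nm.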

outcome, inactive:
CCOc1ccc(C(=O)Nc2nnc(SCc3cc(=O)n4ccccc4n3)s2)cc1, CCOc1ccc(-n2cc(-c3ccccc3)c3c(Nc4cccc(F)c4)ncnc32)cc1, COc1ccc(NC(=O)CNC(=O)Cn2c(C)cc3ccccc3c2=O)c(OC)c1, COc1ccccc1C(=O)Nc1c(C(=O)NC(C)(C)C)oc2ccccc12, Cc1ccc(-n2nc(C)c3c(C(F)(F)F)cc(-c4cccnc4)nc32)cc1Cl, Cc1ccc(-c2nc(C)c(CCNC(=O)c3ccccc3Br)s2)cc1, CCCc1nn2c(=O)cc(COC(=O)CNC(=O)COc3ccc(C)cc3)nc2s1, CC1CCN(C(=O)CSc2nc(-c3ccc(F)cc3)cc(C(F)(F)F)n2)CC1, COc1ccc(NC(=O)C2=C(C)Nc3nc(SCc4ccc(Cl)cc4)nn3C2c2cccc(OC)c2OC)cc1 (configuration not stated)

Activity change, negative = inhibition, inactive:
CCN(Cc1ccccc1)S(=O)(=O)c1cc(Br)cc2c1N(C(=O)C1CC1)CC2 9.54%, Cc1ccc(NC(=O)c2cnc(N3CCCC3)nc2C)cc1F 0.319%, COc1cccc(C(=O)Nc2c(C(=O)Nc3ccc(F)cc3)oc3ccccc23)c1OC -22.8%, O=C(c1ccccc1)N1CCN(CCc2ccccn2)CC1 -6.75%, COc1cccc(NC(=O)CN2C(=O)c3ccccc3Sc3ncccc32)c1 -3.98%, COc1ccc(NC2=C(c3ccc(C(F)(F)F)cc3)C(=O)c3ccccc32)cc1 -4.71%, COc1cc(OC)c(N(C)C(=O)Nc2cn(CC(C)C)c(=O)c3ccccc23)cc1Cl -12.9%, CCOC(=O)c1ccc(NC(=O)c2cn3c4c(ccc(Cl)c4c2=O)OC(C)C3)cc1 (configuration not stated) 6.16%, COc1ccc(S(=O)(=O)N2CCN(c3ccccc3OC)CC2)cc1 -6.47%, CCOC(=O)c1sc(NC(=O)c2c(-c3ccccc3)c(-c3ccccc3)nn(C)c2=O)nc1C 5.49%, NC(=O)c1cccc(-c2cccc(OC(=O)NC3CCCCC3)c2)c1 -6.48%, CC1CCN(c2ccc(-c3cccc(NS(=O)(=O)c4ccc(F)cc4F)c3)nn2)CC1 1%, COc1ccc(N(C)C(=O)Cn2cc(S(=O)(=O)N3CCN(c4ccccc4F)CC3)c3ccccc3c2=O)c(OC)c1 -2.77%, Cc1[nH]c(=O)c(C#N)cc1-c1ccc2nccn2c1 -23.3%, Cc1cc2c(cc1S(=O)(=O)Nc1cc(C(F)(F)F)cc(C(F)(F)F)c1)OCC(=O)N2 -5.42%, Cc1ccc(NC(=O)/C=C/c2ccccc2Cl)cc1Cl -18.7%, O=C(Cn1c(=O)nc(-c2ccccc2)c2ccccc21)Nc1ccc(Cl)cc1F -8.48%, Cc1cccc(-n2c(=O)c3ccccc3n(Cc3ccc(F)cc3)c2=O)c1 -11.7%
